Data taken from PubChem BioAssay (NCI).
“And” between values parts separate entries of the source, which are not always exact repeats. Identical values can stand only once.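 Cultured in 96-well plates, cells were exposed to test compound for 48 hours across five concentrations. Here, GI50 denotes the concentration required for 50% inhibition of growth. The concentration for full growth arrest is given as TGI.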

System: NCI-H322M lung
Assay: DTP human tumour cell line panel, 48 h

Row | SMILES | GI50 | TGI
1 | CC(C)(C#N)c1cc(F)cc(C(=O)Nc2cc(Nc3ncccc3-c3ncnc4nc[nH]c34)ccc2F)c1 | 1.83 µM | > 10 µM
2 | O=C([O][Hg][CH2]C1COC([CH2][Hg][O]C(=O)c2ccccc2)CO1)c1ccccc1 (centres undefined) | 17.2 µM and 19 µM | 31.1 µM and 35.8 µM
3 | COc1ccc2nc3cc(Cl)ccc3c(N3CCN(c4ccnc(N5CCOCC5)n4)CC3)c2c1 | > 100 µM | > 100 µM
4 | CC/C(=C(/CC)c1ccc([O-])cc1)c1ccc([O-])cc1.CC/C(=C(\CC)c1ccc([O-])cc1)c1ccc([O-])cc1.O=C([CH-]C(=O)c1ccccc1)c1ccccc1.O=C([CH-]C(=O)c1ccccc1)c1ccccc1.O=C([CH-]C(=O)c1ccccc1)c1ccccc1.O=C([CH-]C(=O)c1ccccc1)c1ccccc1.[Ti+4].[Ti+4] | 38.6 µM | > 100 µM
5 | COc1ccc(C2=NN(C(=O)c3cc(OC)c(OC)c(OC)c3)C(c3ccc(Cl)cc3)C2)cc1OC (centres undefined) | 18.1 µM | > 100 µM
6 | Cc1cc2c(cc1C)[n+](=O)c(C#N)c(Cl)n2[O-] | – | 41.2 µM
7 | Cc1c(C(=O)C/C(=N/NC(=O)C[n+]2ccccc2)C(=O)Nc2ccccc2)[n+](=O)c2ccccc2n1O | – | > 100 µM
8 | CCOC(=O)C(NCc1ccc2c(c1)OCO2)(NC(=O)c1ccccc1)C(F)(F)F (centres undefined) | – | > 100 µM
9 | N#Cc1c(NCCc2ccc(F)cc2)c2ccccc2n2c1nc1ccccc12 | – | > 100 µM
10 | O=C(O)c1ccc([N+]2=Cn3c(nc4ccccc43)C2)cc1 | – | > 100 µM
11 | O=C(CCCN1CCOCC1)Nc1ccc(Cn2nnc3c2C(=O)c2nnn(Cc4ccc(NC(=O)CCCN5CCOCC5)cc4)c2C3=O)cc1 | 6.25 µM | > 100 µM
12 | CC(=O)C1=C(C)Cn2c(=O)c3ccccc3c(=O)n2C1 | – | > 100 µM
13 | c1ccc(C2SCc3nc4cc5ccccc5cc4n32)cc1 (centres undefined) | – | > 100 µM
14 | O=C1OCCC1C(O)C1c2ccccc2-c2ccccc21 (centres undefined) | – | > 100 µM
15 | Nc1nncc2c1ccn2C1OC(CO)C(O)C1O (centres undefined) | – | > 100 µM
16 | O=C(O)[C@@H]1CCC(=O)N1C(c1ccc2c(c1)OCO2)c1ccc2c(c1)OCO2 | – | > 100 µM
17 | O=C1C(C(c2ccccc2)N2CCOCC2)=C(O)C(c2ccccc2)N1c1ccccc1 (centres undefined) | – | > 10 µM
18 | CCOC(=O)C(C)(C(=O)OCC)/C(Cl)=C\Cl | – | 4.66 µM
